Results reported in the supplement of paper PMC3334620.
Whole data set: some 33,000 sequences, median “E-score (-0.5 to 0.5)” near -0.053, cut for the highest 2% near 0.37. This is one part of the list.

molecular target: Hap1 (UniProt P0CE41); experiment: PBM E-score (8-mer binding enrichment) (E-score (-0.5 to 0.5)); higher = stronger / more preferred TF binding; most listed sequences are background and not binding sites; settings: protein concentration: 200 nM; construct: GST-DNA-binding domain
In short: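 PURExpress in vitro transcription/translation supplied GST-tagged yeast transcription factors, either full-length or DNA-binding domain. Applied at about 100-200 nM to universal all-10-mer Agilent arrays double-stranded by primer extension, the bound protein was detected with fluorescent anti-GST. E-scores, modified Wilcoxon-Mann-Whitney statistics, were given by the Universal PBM Analysis Suite to ungapped eight-base words pooled with their reverse complements after masliner normalisation.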

Sequence of UniProt P0CE41 (P0CE41 whole entry, the tested form may be a part): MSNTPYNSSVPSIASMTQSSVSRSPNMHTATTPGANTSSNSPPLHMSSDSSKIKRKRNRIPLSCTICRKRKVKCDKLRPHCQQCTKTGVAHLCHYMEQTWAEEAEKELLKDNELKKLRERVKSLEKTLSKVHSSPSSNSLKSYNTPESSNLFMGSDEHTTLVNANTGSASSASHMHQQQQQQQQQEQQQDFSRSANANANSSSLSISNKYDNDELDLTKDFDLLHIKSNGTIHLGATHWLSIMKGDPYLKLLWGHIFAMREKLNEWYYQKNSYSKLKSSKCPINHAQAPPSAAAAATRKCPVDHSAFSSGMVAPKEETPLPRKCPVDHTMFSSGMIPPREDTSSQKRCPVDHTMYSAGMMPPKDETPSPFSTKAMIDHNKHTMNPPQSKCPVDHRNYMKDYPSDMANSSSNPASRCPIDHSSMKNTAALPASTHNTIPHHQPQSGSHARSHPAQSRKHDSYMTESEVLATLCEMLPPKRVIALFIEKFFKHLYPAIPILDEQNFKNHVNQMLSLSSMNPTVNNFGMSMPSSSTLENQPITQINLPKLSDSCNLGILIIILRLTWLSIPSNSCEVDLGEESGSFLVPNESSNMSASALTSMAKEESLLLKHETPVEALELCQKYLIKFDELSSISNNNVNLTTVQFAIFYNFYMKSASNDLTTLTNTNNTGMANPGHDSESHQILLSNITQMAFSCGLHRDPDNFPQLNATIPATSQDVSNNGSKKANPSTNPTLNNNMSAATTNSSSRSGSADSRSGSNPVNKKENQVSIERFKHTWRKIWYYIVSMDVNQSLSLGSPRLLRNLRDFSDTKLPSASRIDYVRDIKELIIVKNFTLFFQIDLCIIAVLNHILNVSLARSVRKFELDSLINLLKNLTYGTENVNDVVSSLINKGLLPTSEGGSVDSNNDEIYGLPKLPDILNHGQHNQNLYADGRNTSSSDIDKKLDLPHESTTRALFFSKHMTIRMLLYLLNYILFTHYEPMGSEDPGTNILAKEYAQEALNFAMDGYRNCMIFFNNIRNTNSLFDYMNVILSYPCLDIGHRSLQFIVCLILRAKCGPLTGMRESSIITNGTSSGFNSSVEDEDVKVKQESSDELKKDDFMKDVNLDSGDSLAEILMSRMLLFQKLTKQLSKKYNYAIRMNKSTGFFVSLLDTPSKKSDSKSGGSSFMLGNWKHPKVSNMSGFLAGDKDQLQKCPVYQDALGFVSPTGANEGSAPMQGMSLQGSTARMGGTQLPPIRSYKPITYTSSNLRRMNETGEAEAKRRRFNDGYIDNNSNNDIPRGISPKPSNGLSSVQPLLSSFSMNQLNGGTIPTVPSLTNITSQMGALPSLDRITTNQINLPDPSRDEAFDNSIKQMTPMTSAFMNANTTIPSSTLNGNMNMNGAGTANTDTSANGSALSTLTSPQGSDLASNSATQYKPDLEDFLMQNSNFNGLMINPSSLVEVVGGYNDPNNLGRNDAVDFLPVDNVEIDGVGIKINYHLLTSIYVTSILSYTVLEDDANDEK

Sequence	PBM E-score
CGAGCCCA	-0.125
AGTCGCCC	-0.0935
ACCGCTAC	0.237
CGCAGATC	-0.0262
CGACTACG	-0.0071
CTGATACA	-0.0606
AGCCACAC	-0.234
AAACTCAT	0.0468
CGGCGCCG	0.406
TAAACTCA	0.0254
CGAGTCAA	-0.125
CTAGACTC	-0.205
ATGCATGA	-0.109
AAGCCTAA	-0.0872
ATACCGTC	0.0985
CATGAGCA	-0.107
AAGTCTCC	0.0283
CAATTGTG	-0.155
TGCGTGAA	0.037
CGAAACAG	0.0239
AGGTGCAT	-0.171
CAGCTGTC	-0.0919
GCTACCAC	-0.252
AACACCGA	0.446

Sequence	PBM E-score
AAGGGGTA	-0.2
AACTCTCC	0.0653
AGACATGC	-0.256
AGACCGTG	-0.0316
ACGTGAGC	-0.104
AGCTCGCC	0.119
GTCTTGCA	-0.136
GCATCACA	-0.137
GCATCGAA	-0.147
AATCTACT	0.0176
GCCTACAC	-0.237
ATTCGTGG	-0.109
CTGCGGGA	0.0153
ACGCGTCA	-0.171
GTCTGACA	-0.0876
TAACATCA	-0.207
ACCCAGGG	-0.183
GAATCCGC	0.179
TAGGACGA	-0.164
CCGACCGC	0.181
ACCTCGAT	-0.155
AAGACAGG	-0.138
GAGAGTCC	-0.0436
CTTTATGA	-0.28

Sequence	PBM E-score
AATTGTAG	-0.183
CCGCGAAG	0.17
AAAAGCGG	0.187
AGTGTCCA	-0.179
CGACGCCA	0.0104
AGAACTGC	-0.198
GACAGTTA	0.0585
AGATCACG	-0.113
TCCGCGAA	0.292
AAATAAAG	0.00195
AGCACAGG	-0.241
CGACTAAA	-0.0734
TCACTAAA	-0.16
ATCACGAA	-0.258
AGTAGGTC	-0.053
AGGTCCCA	-0.174
CCAGGTGC	0.0224
AGTAGGAA	-0.259
CGGGGGAA	0.354
AGCTTAGG	-0.0706
CCGGTCCA	0.237
ACCTAGAC	-0.158
CAGGTCCG	0.337
CTAGTTCC	0.234

Sequence	PBM E-score
CTCCAAAC	-0.124
CACGTTTA	-0.217
CTCACCTA	-0.159
GGTGTGCA	-0.286
GTGAACCA	-0.193
TACTCCTA	-0.354
ATTGGTGG	-0.0634
ACGTACAT	-0.107
GTCATAGA	-0.181
CCGTGAAG	-0.0014
GTTCTTAA	-0.0272
CTTTCTGC	-0.0328
CTTAATCC	0.218
CATCGGTA	0.234
GCAGTCCC	-0.168
GGGGTGAA	0.062
CCATGCGC	0.00249
AATTGGAC	0.0155
ACGCAGTC	-0.295
GGCTACGA	-0.0678
AGGACCCA	-0.114
CATCATCC	-0.171
